The record followed here is PMC12605009.

In this experiment the target is PANA_2924 C-terminal domain after TEV cleavage of the His tag (Pantoea ananatis LMG 20103) (UniProt D4GKQ2). As to the kind of experiment: SEC; complex after IMAC and TEV cleavage on Superdex 75 Increase 10/300 GL, 20 mM Tris-HCl pH 8.5, 150 mM NaCl, 1 mM TCEP; mass from a calibration curve.

As for “PANA_2923 immunity protein, untagged (natural protein)”, the stoichiometry N worked out at 1.
